Laboratory results published in the antibiotic and cytotoxicity screens of Wong et al. (2023).
The list shows a part of the results.

Test system: HSkMC (human skeletal muscle cells)
Test: cytotoxicity call (relative viability < 0.9)
Conditions: 10 µM

`CCCCNC(=O)N1C[C@@H]2[C@H](CN)[C@@H]2C1` was tested. Which cytotoxicity call did it give?
Its cytotoxicity call is “inactive”.

`Cc1ccc(S(=O)(=O)Nc2ccc3c(c2)C(=O)N([C@H](C)CO)C[C@@H](C)[C@@H](CN(C)S(=O)(=O)c2ccc(C)cc2)OCCCC[C@H](C)O3)cc1` was tested. Which cytotoxicity call did it give?
The cytotoxicity call was “inactive”.

Which cytotoxicity call does the source give for `CC=Cc1ccc2n(c1=O)C[C@H]1[C@H](CO)[C@@H](C(=O)NCCc3cn(C)cn3)[C@@H]2N1C(=O)C1CC1` here?
The cytotoxicity call was “inactive”.

How did the cytotoxicity call turn out when `C[C@H](C(=O)N(C)C[C@H]1OCc2ccccc2-c2c(n(C)c3ccccc23)C(=O)N([C@H](C)CO)C[C@H]1C)c1ccccc1` was run?
Its cytotoxicity call is “inactive”.

Which cytotoxicity call does the source give for `NNC(=O)CCCCCCC(=O)NO` here?
Its cytotoxicity call is “inactive”.

Which cytotoxicity call does the source give for `Cc1cc(=O)oc2cc(O[C@H]3O[C@@H](CO)[C@@H](O)[C@@H](O)[C@@H]3O)ccc12` here?
Its cytotoxicity call is “inactive”.

`C[C@@H]1CN([C@H](C)CO)C(=O)c2cc(NC(=O)CCC(F)(F)F)ccc2O[C@@H](C)CCCCO[C@@H]1CN(C)Cc1ccc(C(F)(F)F)cc1` was tested. Which cytotoxicity call did it give?
The cytotoxicity call was “inactive”.

`COS(=O)(=O)[O-].COc1cc(N)cn[n+]1-c1ccccc1` was tested. Which cytotoxicity call did it give?
The cytotoxicity call was “inactive”.

With `Cc1ccc(S(=O)(=O)Nc2cccc3c2O[C@H](CN(C)C(=O)NC(C)C)[C@@H](C)CN([C@H](C)CO)C3=O)cc1` as the compound, how does the cytotoxicity call read?
The cytotoxicity call was “inactive”.

With `COC(=O)C(CCCN1C(=O)c2ccccc2C1=O)(NC(C)=O)c1nn[nH]n1` (stereo not given) as the compound, how does the cytotoxicity call read?
Its cytotoxicity call is “inactive”.

With `COc1ccc(CN(C)C[C@H]2OCCCC[C@H](C)Oc3ccc(NS(=O)(=O)c4ccc(F)cc4)cc3C(=O)N([C@@H](C)CO)C[C@@H]2C)cc1` as the compound, how does the cytotoxicity call read?
Its cytotoxicity call is “inactive”.

`C[C@@H]1CCCCO[C@@H](CN(C)Cc2ccccc2)[C@H](C)CN([C@@H](C)CO)C(=O)c2cc(NC(=O)C3CCCCC3)ccc2O1` was tested. Which cytotoxicity call did it give?
Its cytotoxicity call is “inactive”.

Which cytotoxicity call does the source give for `CCCn1c(=O)c(C)cn2nc(N)nc12` here?
The cytotoxicity call was “inactive”.

How did the cytotoxicity call turn out when `N[C@@H](COP(=O)(O)O)C(=O)O` was run?
Its cytotoxicity call is “inactive”.

How did the cytotoxicity call turn out when `Cc1ccc(S(=O)(=O)N(C)C[C@@H]2OCCCC[C@@H](C)Oc3ccc(NS(=O)(=O)c4ccc(Cl)cc4)cc3C(=O)N([C@H](C)CO)C[C@H]2C)cc1` was run?
The cytotoxicity call was “inactive”.

With `C[C@H]1CN([C@@H](C)CO)C(=O)c2cccc(NC(=O)Nc3cccc4ccccc34)c2O[C@H]1CN(C)C(=O)Nc1cccc2ccccc12` as the compound, how does the cytotoxicity call read?
Its cytotoxicity call is “inactive”.

`C[C@@H]1CCCCO[C@@H](CN(C)Cc2ccncc2)[C@@H](C)CN([C@@H](C)CO)C(=O)c2cc(NS(=O)(=O)c3ccc(Cl)cc3)ccc2O1` was tested. Which cytotoxicity call did it give?
Its cytotoxicity call is “inactive”.

How did the cytotoxicity call turn out when `CNC[C@H]1OCCCC[C@@H](C)Oc2ccc(NC(=O)c3ccncc3)cc2C(=O)N([C@H](C)CO)C[C@H]1C` was run?
Its cytotoxicity call is “inactive”.

How did the cytotoxicity call turn out when `COc1ccc(NC(=O)Nc2ccc3c(c2)C(=O)N([C@H](C)CO)C[C@H](C)[C@H](CN(C)C(=O)Nc2cccc4ccccc24)O3)cc1` was run?
The cytotoxicity call was “inactive”.

`COc1ccc2c3c(n(c2c1)C)[C@@H](CO)N(C[C@]13CN(C1)C(=O)C)C(=O)CN1CCOCC1` was tested. Which cytotoxicity call did it give?
Its cytotoxicity call is “inactive”.

Which cytotoxicity call does the source give for `Cc1noc(C)c1NC(=O)N(C)C[C@H]1Oc2ccc(NC(=O)Nc3cccc4ccccc34)cc2CC(=O)N([C@H](C)CO)C[C@H]1C` here?
The cytotoxicity call was “inactive”.

With `COc1ccccc1C#Cc1cnc2c(c1)C(=O)N([C@H](C)CO)C[C@H](C)[C@H](CN(C)C(=O)CN(C)C)O2` as the compound, how does the cytotoxicity call read?
Its cytotoxicity call is “inactive”.

`Cc1cc(C(=O)Nc2cccc3c2O[C@H](CN(C)C(=O)Nc2ccc4c(c2)OCO4)[C@H](C)CN([C@H](C)CO)C3=O)n(C)n1` was tested. Which cytotoxicity call did it give?
Its cytotoxicity call is “inactive”.

Which cytotoxicity call does the source give for `C[C@@H]1CN([C@@H](C)CO)C(=O)c2cc(NC(=O)C3CCCCC3)ccc2O[C@@H](C)CCCCO[C@H]1CN(C)S(=O)(=O)c1ccc(Cl)cc1` here?
Its cytotoxicity call is “inactive”.

Which cytotoxicity call does the source give for `O=C(C[C@H]1CC[C@H]2[C@@H](COC[C@@H](O)CN2S(=O)(=O)c2ccc(Cl)cc2)O1)NCc1ccncn1` here?
The cytotoxicity call was “inactive”.

How did the cytotoxicity call turn out when `CNC[C@@H]1OCCCC[C@H](C)Oc2ccc(NS(=O)(=O)c3c(C)noc3C)cc2C(=O)N([C@@H](C)CO)C[C@@H]1C` was run?
The cytotoxicity call was “inactive”.

For `C[C@H](CO)N1C[C@H](C)[C@@H](CN(C)S(=O)(=O)c2ccc(C(F)(F)F)cc2)OCc2ccccc2-c2c(n(C)c3ccccc23)C1=O`, which cytotoxicity call is on record?
Its cytotoxicity call is “inactive”.

For `Brc1ccc(-c2ccc(Br)s2)s1`, which cytotoxicity call is on record?
The cytotoxicity call was “inactive”.

How did the cytotoxicity call turn out when `Oc1cc(O)c2c(c1)O[C@H](c1ccc(O)c(O)c1)[C@H](O)[C@H]2c1c(O)cc(O)c2c1O[C@H](c1ccc(O)c(O)c1)[C@@H](O)C2` was run?
Its cytotoxicity call is “inactive”.

`O=C(O)c1cc2ncc(CCO)cn2n1` was tested. Which cytotoxicity call did it give?
The cytotoxicity call was “inactive”.
